The supplement of paper PMC4604168 (melanoma cell lines)
The list shows a part of the results. Repeats are few or missing, and single values can be far off.

Test system: RVH-421
Assay: cell count relative to DMSO control; melanoma cells; higher = more viable cells
Conditions: library dose: standard library concentration; 72 h
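Note: cells treated in 1,536-well plates, then fixed and DAPI-stained, with nuclei counted from automated high-throughput microscope images.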

Row | Compound | cell count [%]
1 | CCCCCCCCc1ccc(CCC(N)(CO)CO)cc1 [fingolimod] + CCN(CC)CCCCNc1ncc2cc(-c3cc(OC)cc(OC)c3)c(NC(=O)NC(C)(C)C)nc2n1 [PD173074] (first compound 10 µM, partner dose 0.5 µM) | 25.5
2 | NC(=O)c1ccc(N(C(N)=O)c2c(F)cccc2F)nc1-c1ccc(F)cc1F + CCCCCCCCCCCC1=C(O)C(=O)C=C(O)C1=O [Embelin] (first compound 2 µM, partner dose 6 µM) | 70.4
3 | CCCCCCCCc1ccc(CCC(N)(CO)CO)cc1 [fingolimod] + O=C(Nc1ccccc1)c1cc([N+](=O)[O-])ccc1Cl [GW9662] (first compound 10 µM, partner dose 10 µM) | 28.3
4 | NC(=O)c1ccc(N(C(N)=O)c2c(F)cccc2F)nc1-c1ccc(F)cc1F + Cn1cc(/C=C2\C(=O)Nc3cccnc32)c2ccccc21 [GW441756] (first compound 2 µM, partner dose 2 µM) | 94.9

Test system: SkMel28
Assay: as above
Conditions: library dose: standard library concentration; 72 h

Row | Compound | cell count [%]
5 | NC(=O)c1ccc(N(C(N)=O)c2c(F)cccc2F)nc1-c1ccc(F)cc1F + O=C1NC(=O)/C(=C/c2ccc(-c3ccc(F)cc3O)o2)S1 [AS252424] (first compound 2 µM, partner dose 5 µM) | 81.5
6 | NC(=O)c1ccc(N(C(N)=O)c2c(F)cccc2F)nc1-c1ccc(F)cc1F + COc1ccc(COc2ccc(Cc3cnc(N)nc3N)cc2OC)cc1 [GW2580] (first compound 2 µM, partner dose 5 µM) | 85.9
7 | NC(=O)c1ccc(N(C(N)=O)c2c(F)cccc2F)nc1-c1ccc(F)cc1F + O=C(O)C(=O)Nc1sc2c(c1C(=O)O)CCNC2 [TCS401] (first compound 2 µM, partner dose 8.33333 µM) | 94.1
8 | CC(C)(C)c1cnc(CSc2cnc(NC(=O)C3CCNCC3)s2)o1 + CC(C)CCN1c2nc(Nc3cc(F)c(O)c(F)c3)ncc2N(C)C(=O)C1C [BID1870] (first compound 0.05 µM, partner dose 1 µM) | 30.4
9 | COc1cc2c(Oc3ccc4[nH]c(C)cc4c3F)ncnc2cc1OCCCN1CCCC1 [cediranib] + COc1ccc(-c2ccc3c(N4CCOCC4)nc(N4C[C@@H](C)O[C@@H](C)C4)nc3n2)cc1CO [KU0063794] (first compound 2 µM, partner dose 0.1 µM) | 76.7
10 | CCc1ccc(CCOc2ccc(CC3SC(=O)NC3=O)cc2)nc1 (stereo unspecified) [pioglitazone] + Cn1cc(/C=C2\C(=O)Nc3cccnc32)c2ccccc21 [GW441756] (first compound 10 µM, partner dose 2 µM) | 71.2
11 | NC(=O)c1ccc(N(C(N)=O)c2c(F)cccc2F)nc1-c1ccc(F)cc1F + O=c1cc(-c2cccc3c2Sc2ccccc2S3)oc(N2CCOCC2)c1 [KU55933] (first compound 2 µM, partner dose 5 µM) | 70.8
12 | CN(NC(=O)CC(=O)NN(C)C(=S)c1ccccc1)C(=S)c1ccccc1 + CCc1ccc(CCOc2ccc(CC3SC(=O)NC3=O)cc2)nc1 [pioglitazone] (first compound 0.03 µM, partner dose 10 µM) | 46.7
13 | NC(=O)c1ccc(N(C(N)=O)c2c(F)cccc2F)nc1-c1ccc(F)cc1F + c1cc(-c2cnn3cc(-c4ccc(OCCN5CCCCC5)cc4)cnc23)ccn1 [Dorsomorphin] (first compound 2 µM, partner dose 2 µM) | 62.8
14 | Cc1ccc(NC(=O)c2cccc(N(C)C)c2)cc1NC(=O)c1ccc(O)cc1 + COc1ccc(-c2ccc3c(N4CCOCC4)nc(N4C[C@@H](C)O[C@@H](C)C4)nc3n2)cc1CO [KU0063794] (first compound 10 µM, partner dose 0.1 µM) | 59.8
15 | NC(=O)c1ccc(N(C(N)=O)c2c(F)cccc2F)nc1-c1ccc(F)cc1F + CCN(CC)CCCCNc1ncc2cc(-c3cc(OC)cc(OC)c3)c(NC(=O)NC(C)(C)C)nc2n1 [PD173074] (first compound 2 µM, partner dose 0.5 µM) | 159
16 | CCCCCCCCc1ccc(CCC(N)(CO)CO)cc1 [fingolimod] + Oc1nc(-c2ccc(C(F)(F)F)cc2)nc2c1CSCC2 [XAV939] (first compound 10 µM, partner dose 10 µM) | 33.5
